In all, about 150,000 compounds went through this assay and about 540 (0.36%) showed an effect of 50% or more. The list shows a part of the results.
The molecules below were run on Plasmodium falciparum (assay: Primary screen in NF54 nanoGlo assay, in single point, at 2uM, 72h; a lower Z score goes with more inhibition). Conditions: timepoint 72 hour.
Assay type: functional, Erythrocyte

In order of falling “% Inhibition” value:
1. O=C1C[C@@H](c2cccc(Br)c2)c2c(O)nc(N3CCOCC3)nc2N1  30%
2. NC(=O)Nc1ccc(COC2CCCC2)cc1  25%
3. Cc1nn(CCC#N)c(C)c1[C@@H]1C=C[C@@H](NC(=O)Nc2ccccc2)C1  25%
4. O=C1N(C2CCCCC2)C[C@H]2CN(Cc3cccc(Cl)c3)CCN12  15%
5. O=C(CN1C(=O)NC2(CCCCCCC2)C1=O)Nc1ccc(Br)cc1  10%
6. O=C(NC[C@H]1CCCO1)C1CCN(S(=O)(=O)c2ccc3c(c2)CCC3)CC1  9%
7. CCc1cc(CNC(=O)[C@]2(CC)CCCN2)on1  7%
8. COc1cccc(CN2CCC[C@@]3(CCN(c4cncc(C(N)=O)n4)C3)C2=O)c1OC  7%
9. COc1cc(C(=O)NCCc2ccc(F)cc2)ncn1  7%
10. CC(=O)NCCc1nc(Cn2cncn2)nn1-c1ccccc1  2%
11. COc1ccc(-c2ccc3c(c2)C[C@H](CN)O3)nn1  1%
12. COCc1nc(CNC2Cc3ccccc3C2)no1  1%
13. CC(=O)N1CC(OCC(=O)N(Cc2cccnc2)c2ccc(Cl)cc2)C1  -1%
14. Cc1cc(C2CCC2)nc(N2CCC(O)(CO)CC2)n1  -2%
15. Nc1nnc(N2CCN(C3CCCCC3)CC2)s1  -4%
16. Cc1cc(C(F)F)oc1C(=O)N[C@@H](C)c1ccc[nH]1  -4%
17. C=CCC[C@@H](CN(C)Cc1cccnc1)Oc1cc(CC)ncn1  -4%
18. FC(F)c1cc(-c2ccc(Cl)cc2)nc(NCCc2ccccc2)n1  -4%
19. CCc1nc(C)c(C(=O)N(C)Cc2csc(-c3ccccc3)n2)s1  -4%
20. COc1cccc(NC(=O)[C@@H]2CC(=O)Nc3nnc(-c4ccco4)n32)c1  -4%
21. Cc1onc(N)c1S(=O)(=O)NC(=O)C1CC12CCCc1ccccc12 (centres undefined)  -5%
22. Cc1cc(C)cc(CN2CCN(Cc3c[nH]cn3)[C@@H]3CS(=O)(=O)C[C@@H]32)c1  -5%
23. COc1cc(N[C@H]2CCN(C)C2=O)nc(N)n1  -5%
24. Cc1cc(C)nc(CCNC(=O)NC[C@@H](O)Cc2ccccc2)n1  -7%
25. CCC(=O)N1c2ccc(S(=O)(=O)N3CCCCC3)cc2C[C@H]1C(=O)NCc1ccc(C)o1  -7%
26. O=C(C1CCCOC1)N1CCC(c2cccc(C(F)(F)F)c2)C1 (centres undefined)  -7%
27. C[C@H]1C[C@H](NC(=O)c2cc(OC(F)F)n(C)n2)c2ccsc2S1(=O)=O  -8%
28. O=C(Nc1cccc2c1CCCC2)C1CC(=O)N(C2CCS(=O)(=O)C2)C1 (centres undefined)  -8%
29. Cc1cc(OCC(=O)N(C)C)ccc1Cl  -8%
30. C[C@H]1CN(c2nc3cc(S(N)(=O)=O)ccc3[nH]2)CC(=O)N1  -9%
31. O=C1Nc2cc(C(=O)N3CCN(c4ccccn4)CC3)ccc2N2CCCC[C@@H]12  -9%
32. COCCOc1cnc(-c2noc([C@@H]3COc4cc(F)ccc4C3)n2)cn1  -11%
33. Fc1cc(F)cc(CNc2nnc(-c3ccon3)s2)c1  -11%
34. COCc1cccc(C(=O)N2CCNC(=O)[C@@H]2c2cccc(F)c2)c1  -13%
35. O=C(CC1(N2Cc3ccccc3C2=O)CCCCC1)N1CCN(Cc2ccc3c(c2)OCO3)CC1  -13%
36. O=C(NC1CCN(c2ccccc2C(=O)NCCN2CCCCC2)CC1)c1ccc(C(F)(F)F)cc1  -13%
37. COc1ccccc1[C@H](c1oc2ccccc2c1NC(=O)c1ccccc1)N1CCN(C)CC1  -15%
38. Fc1cnc(NCC2(c3ccncc3)CC2)nc1  -15%
39. O=C1CNc2cc(NS(=O)(=O)N3CCCCC3)ccc2O1  -17%
40. COCC1(CNC(=O)[C@H](C)c2ccc(OC)cc2)CCN(C(=O)OC(C)(C)C)CC1  -17%
41. CC[C@@H](CCNc1ncccc1F)N1CCCC1=O  -18%
42. COc1ccc(CCNC(=O)N2CCC(Oc3nc4c(F)cccc4s3)CC2)cc1  -18%

In order of rising Z score:
1. O=C1C[C@@H](c2cccc(Br)c2)c2c(O)nc(N3CCOCC3)nc2N1  -4.36
2. NC(=O)Nc1ccc(COC2CCCC2)cc1  -2.87
3. Cc1nn(CCC#N)c(C)c1[C@@H]1C=C[C@@H](NC(=O)Nc2ccccc2)C1  -2.81
4. O=C1N(C2CCCCC2)C[C@H]2CN(Cc3cccc(Cl)c3)CCN12  -1.71
5. O=C(NC[C@H]1CCCO1)C1CCN(S(=O)(=O)c2ccc3c(c2)CCC3)CC1  -1.69
6. O=C(CN1C(=O)NC2(CCCCCCC2)C1=O)Nc1ccc(Br)cc1  -1.31
7. COc1cccc(CN2CCC[C@@]3(CCN(c4cncc(C(N)=O)n4)C3)C2=O)c1OC  -1.29
8. COc1cc(C(=O)NCCc2ccc(F)cc2)ncn1  -1.23
9. CCc1cc(CNC(=O)[C@]2(CC)CCCN2)on1  -1.01
10. CC(=O)NCCc1nc(Cn2cncn2)nn1-c1ccccc1  -0.4
11. COc1ccc(-c2ccc3c(c2)C[C@H](CN)O3)nn1  -0.19
12. COCc1nc(CNC2Cc3ccccc3C2)no1  -0.11
13. CC(=O)N1CC(OCC(=O)N(Cc2cccnc2)c2ccc(Cl)cc2)C1  0.09
14. Cc1cc(C2CCC2)nc(N2CCC(O)(CO)CC2)n1  0.27
15. Nc1nnc(N2CCN(C3CCCCC3)CC2)s1  0.48
16. COc1cccc(NC(=O)[C@@H]2CC(=O)Nc3nnc(-c4ccco4)n32)c1  0.49
17. Cc1cc(C)cc(CN2CCN(Cc3c[nH]cn3)[C@@H]3CS(=O)(=O)C[C@@H]32)c1  0.58
18. Cc1cc(C(F)F)oc1C(=O)N[C@@H](C)c1ccc[nH]1  0.61
19. CCc1nc(C)c(C(=O)N(C)Cc2csc(-c3ccccc3)n2)s1  0.61
20. C=CCC[C@@H](CN(C)Cc1cccnc1)Oc1cc(CC)ncn1  0.62
21. COc1cc(N[C@H]2CCN(C)C2=O)nc(N)n1  0.65
22. Cc1onc(N)c1S(=O)(=O)NC(=O)C1CC12CCCc1ccccc12 (centres undefined)  0.66
23. FC(F)c1cc(-c2ccc(Cl)cc2)nc(NCCc2ccccc2)n1  0.67
24. O=C(C1CCCOC1)N1CCC(c2cccc(C(F)(F)F)c2)C1 (centres undefined)  0.73
25. CCC(=O)N1c2ccc(S(=O)(=O)N3CCCCC3)cc2C[C@H]1C(=O)NCc1ccc(C)o1  0.95
26. Cc1cc(OCC(=O)N(C)C)ccc1Cl  1.05
27. Cc1cc(C)nc(CCNC(=O)NC[C@@H](O)Cc2ccccc2)n1  1.14
28. C[C@H]1C[C@H](NC(=O)c2cc(OC(F)F)n(C)n2)c2ccsc2S1(=O)=O  1.21
29. COCCOc1cnc(-c2noc([C@@H]3COc4cc(F)ccc4C3)n2)cn1  1.21
30. COCc1cccc(C(=O)N2CCNC(=O)[C@@H]2c2cccc(F)c2)c1  1.26
31. O=C1Nc2cc(C(=O)N3CCN(c4ccccn4)CC3)ccc2N2CCCC[C@@H]12  1.27
32. Fc1cc(F)cc(CNc2nnc(-c3ccon3)s2)c1  1.4
33. O=C(NC1CCN(c2ccccc2C(=O)NCCN2CCCCC2)CC1)c1ccc(C(F)(F)F)cc1  1.58
34. O=C1CNc2cc(NS(=O)(=O)N3CCCCC3)ccc2O1  1.59
35. O=C(Nc1cccc2c1CCCC2)C1CC(=O)N(C2CCS(=O)(=O)C2)C1 (centres undefined)  1.6
36. O=C(CC1(N2Cc3ccccc3C2=O)CCCCC1)N1CCN(Cc2ccc3c(c2)OCO3)CC1  1.67
37. C[C@H]1CN(c2nc3cc(S(N)(=O)=O)ccc3[nH]2)CC(=O)N1  1.71
38. Fc1cnc(NCC2(c3ccncc3)CC2)nc1  1.73
39. CC[C@@H](CCNc1ncccc1F)N1CCCC1=O  1.81
40. COc1ccccc1[C@H](c1oc2ccccc2c1NC(=O)c1ccccc1)N1CCN(C)CC1  2.37
41. COc1ccc(CCNC(=O)N2CCC(Oc3nc4c(F)cccc4s3)CC2)cc1  2.62
42. COCC1(CNC(=O)[C@H](C)c2ccc(OC)cc2)CCN(C(=O)OC(C)(C)C)CC1  3
